The text below walks through data of publication PMC7666182.

Amino acid sequences for entries named in this document (tags omitted). A change or cut given only in a name is not applied to a line headed by its entry. Residues count along the entry.
UniProt P35222: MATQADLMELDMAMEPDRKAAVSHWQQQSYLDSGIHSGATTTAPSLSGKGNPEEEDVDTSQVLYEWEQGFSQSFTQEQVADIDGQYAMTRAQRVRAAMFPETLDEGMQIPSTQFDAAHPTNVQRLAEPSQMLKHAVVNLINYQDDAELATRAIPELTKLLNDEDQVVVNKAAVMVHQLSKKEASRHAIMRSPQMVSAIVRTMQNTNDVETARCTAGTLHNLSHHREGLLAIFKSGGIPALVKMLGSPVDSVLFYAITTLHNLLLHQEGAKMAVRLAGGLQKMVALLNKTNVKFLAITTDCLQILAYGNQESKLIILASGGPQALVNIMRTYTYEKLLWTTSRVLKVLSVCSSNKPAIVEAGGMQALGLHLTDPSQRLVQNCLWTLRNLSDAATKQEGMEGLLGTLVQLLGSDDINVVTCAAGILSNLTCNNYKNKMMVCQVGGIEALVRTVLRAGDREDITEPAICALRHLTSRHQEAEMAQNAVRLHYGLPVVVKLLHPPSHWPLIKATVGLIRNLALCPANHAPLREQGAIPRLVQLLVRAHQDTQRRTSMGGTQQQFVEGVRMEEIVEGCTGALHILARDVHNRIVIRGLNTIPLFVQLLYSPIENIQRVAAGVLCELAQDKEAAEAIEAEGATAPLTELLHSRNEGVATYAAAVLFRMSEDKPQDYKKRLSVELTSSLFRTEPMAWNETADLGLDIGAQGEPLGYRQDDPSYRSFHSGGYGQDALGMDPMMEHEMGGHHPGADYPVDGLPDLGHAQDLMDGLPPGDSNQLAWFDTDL
GST-β-catenin-ARM: residues 133-695 of P35222
UniProt P49841: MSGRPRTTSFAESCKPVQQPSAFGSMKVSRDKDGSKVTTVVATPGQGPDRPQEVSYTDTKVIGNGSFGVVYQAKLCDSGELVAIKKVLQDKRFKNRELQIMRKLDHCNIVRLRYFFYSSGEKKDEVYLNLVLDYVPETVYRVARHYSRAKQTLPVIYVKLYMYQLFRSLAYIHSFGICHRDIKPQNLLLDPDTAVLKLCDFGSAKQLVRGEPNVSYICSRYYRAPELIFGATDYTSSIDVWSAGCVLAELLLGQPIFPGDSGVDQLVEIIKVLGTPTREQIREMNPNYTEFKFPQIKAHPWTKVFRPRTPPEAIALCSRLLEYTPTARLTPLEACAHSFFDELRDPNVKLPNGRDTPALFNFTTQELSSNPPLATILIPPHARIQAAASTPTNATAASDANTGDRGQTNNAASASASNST

Results are given in words; binding and its absence hold for the method and conditions named. In cells and extracts the contact can be indirect. Some binding calls cover weakened binding; strength is not graded here. For part of these data: Tags and fused reporters may be left off the sequences shown.

In experiment [1] the target is T1, IRF3 (endogenous) (human (endogenous in HCT116 and H1299)) (UniProt Q14653).
T1 sequence: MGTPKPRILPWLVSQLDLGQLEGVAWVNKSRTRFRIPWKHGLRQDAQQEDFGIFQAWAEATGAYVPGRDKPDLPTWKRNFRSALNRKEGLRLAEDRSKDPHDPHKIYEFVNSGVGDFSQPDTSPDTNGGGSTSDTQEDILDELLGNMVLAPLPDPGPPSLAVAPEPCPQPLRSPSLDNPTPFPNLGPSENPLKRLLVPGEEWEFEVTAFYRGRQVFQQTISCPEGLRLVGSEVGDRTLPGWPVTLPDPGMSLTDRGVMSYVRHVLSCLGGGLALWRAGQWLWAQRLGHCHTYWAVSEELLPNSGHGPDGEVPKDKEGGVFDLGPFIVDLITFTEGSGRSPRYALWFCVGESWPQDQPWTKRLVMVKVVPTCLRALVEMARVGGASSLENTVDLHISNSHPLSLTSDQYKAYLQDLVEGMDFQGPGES
Kind of experiment: co-IP; anti-IRF3 immunoprecipitates of HCT116 or H1299 cell extracts, immunoblot; cells treated with wnt3a-conditioned medium or with VSV (association decreased after VSV). On the technique in general: In western blotting, separated proteins are transferred to a membrane and probed.

In experiment [2] the target is T2, Flag-IRF3 (UniProt Q14653).
T2 sequence: T1 sequence
The experiment in a line: co-IP; anti-FLAG immunoprecipitates of transfected HEK293T cells, immunoblot.

The target in experiment [3] is GST-β-catenin-ARM (UniProt P35222). The experiment in a line: pull-down; GST pull-down of GST-β-catenin constructs with MBP-IRF3; the paper calls the interaction direct.
Experiment [4] deals with β-catenin-S33A of the GST pull-down (the active mutant of β-catenin) (UniProt P35222). The experiment is described as above.
In experiment [5] the target is GST-β-catenin (UniProt P35222). The experiment is described as above.

On to “active (non-phospho)-β-catenin (endogenous) (from UniProt P35222 1-781)”, for which, in experiment [1], the binding entry is given as “binds”.

Consider HA-GSK3β (from UniProt P49841 1-420), for which the binding entry in experiment [2] is “no binding”.

For “β-catenin (endogenous, total) (from UniProt P35222 1-781)”, the binding result in experiment [1] was “binds”.

As for “HA-β-catenin-S33A (from UniProt P35222 1-781)”, in experiment [2], the binding entry is given as “binds”.

Take “HA-β-catenin (from UniProt P35222 1-781)”: the binding entry in experiment [2] is recorded as “binds”.

For the molecule “GSK3β (endogenous) (from UniProt P49841 1-420)”, the binding result in experiment [1] is “no binding”.

B1: MBP-IRF3 (protein, UniProt Q14653 1-427)
chain: T1 sequence
For the molecule B1, the binding result in experiment [3], in experiment [4] and in experiment [5] was “binds” in each case.
